Results as given in US20050164926A1 (published 2005).

Target: porcine trypsin (porcine, UniProt P00761 9-231)
Test: cell-based or functional assay

Chain of UniProt P00761 (P00761 9-231 limits assumed): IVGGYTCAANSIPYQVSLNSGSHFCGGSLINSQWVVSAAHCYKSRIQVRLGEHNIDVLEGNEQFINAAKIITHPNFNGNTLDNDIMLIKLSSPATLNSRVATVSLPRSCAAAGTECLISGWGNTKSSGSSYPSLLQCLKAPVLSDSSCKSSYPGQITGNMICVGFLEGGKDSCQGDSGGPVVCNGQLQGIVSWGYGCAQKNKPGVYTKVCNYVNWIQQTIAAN

Binder | apparent stoichiometry of inhibition (amidolysis of S2444, titration of trypsin activity)
ANV-6L15 (other) AQVLRGTVTDFPGFDERADAETLRKAMKGLGTDEESILTLLTSRSNAQRQEISAAFKTLFGRDLLDDLKSELTGKFEKLIVALMKPSRLYDAYELKHALKGAGTNEKVLTEIIASRTPEELRAIKQVYEEEYGSSLEDDVVGDTSGYYQRMLVVLLQANRDPDAGIDEAQVEQDAQALFQAGELKWGTDEEKFITIFGTRSVSHLRKVFDKYMTISGFQIEETIDRETSGNLEQLLLAVVKSIRSIPAYLAETLYYAMKGAGTDDHTLIRVMVSRSEIDLFNIRKEFRKNFATSLYSMIKGDTSGDYKKALLLLAGEDDMHPDFCLEPPYDGPCRALHLRYFYNAKAGLCQTFYYGGCLAKRNNFESAEDCMRTCGGA | 1 mol inhibitor per mol enzyme
6L15 (designed binder) APDFCLEPPYDGPCRALHLRYFYNAKAGLCQTFYYGGCLAKRNNFESAEDCMRTCGGA | 1 mol inhibitor per mol enzyme
